Measurements taken from PubChem BioAssay AID1159614 (National Center for Advancing Translational Sciences (NCATS), 2016).
Out of some 45,000 compounds screened, about 65 (0.1%) were called active. Calls come from the whole dose curve; as a rule, active = well fitted activation curve with a large enough effect; inconclusive = small, poorly fitted or top-dose-only effect; inactive = no such curve, though single readings can be large or run the other way. The list shows a part of the results.

What follows are compounds tested against Galactocerebrosidase (Homo sapiens) (UniProt P54803) (assay: A Novel Cell-Based Assay to Identify Small Molecules for B -Galactocerebrosidase). Conditions: 145M-Twi-hGALC-G270D cells (Twitcher mouse brain line with human GALC G270D), HMU-beta-Gal fluorescence, 48 h; series mostly up to 57.5 µM; activation: at the top concentration.
Procedure, shortened: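 Fluorescence readout: HMU-β-gal cleavage by mutant GALC (0.1 mM final, citrate/phosphate pH 5.2 with 1 mg/mL taurocholate), stopped with carbonate/bicarbonate plus Triton X-100. Cells: murine Twitcher 145M-Twi expressing human G270D GALC; qHTS for activators.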
Note: 0% is about no effect; nearly all actives have a fitted effect of over 65% in size.

Chain of UniProt P54803 (P54803 whole entry, looked up): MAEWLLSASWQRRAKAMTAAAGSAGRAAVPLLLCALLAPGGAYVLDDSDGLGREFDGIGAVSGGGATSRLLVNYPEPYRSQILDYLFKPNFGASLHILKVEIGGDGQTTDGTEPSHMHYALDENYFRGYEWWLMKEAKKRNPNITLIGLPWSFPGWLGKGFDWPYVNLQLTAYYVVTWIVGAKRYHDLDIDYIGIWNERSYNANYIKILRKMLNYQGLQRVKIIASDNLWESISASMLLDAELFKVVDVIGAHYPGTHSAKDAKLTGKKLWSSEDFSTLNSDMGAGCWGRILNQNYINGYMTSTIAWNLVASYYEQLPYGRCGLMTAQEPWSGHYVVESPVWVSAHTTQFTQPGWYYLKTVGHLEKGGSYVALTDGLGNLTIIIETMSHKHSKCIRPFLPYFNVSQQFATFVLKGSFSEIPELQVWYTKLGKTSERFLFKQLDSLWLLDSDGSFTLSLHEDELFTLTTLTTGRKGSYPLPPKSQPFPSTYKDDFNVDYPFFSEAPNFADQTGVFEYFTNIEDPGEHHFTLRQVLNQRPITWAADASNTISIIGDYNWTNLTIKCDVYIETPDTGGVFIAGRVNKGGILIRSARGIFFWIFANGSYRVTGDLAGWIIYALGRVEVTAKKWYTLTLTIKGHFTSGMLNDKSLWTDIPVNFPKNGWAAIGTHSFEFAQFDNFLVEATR

activation, inactive:
Cc1cc(C)n(-c2nc3ccccc3nc2Nc2cccc(C(=O)NCCc3ccccc3)c2)n1 -7.39%, COc1ccc(CCNC(=O)c2c(C)oc3nc(C)nc(N4CCOCC4)c23)cc1OC 4.73%, Cc1ccc(NC(=O)C2CCCN(S(=O)(=O)c3cccc4cccnc34)C2)c(Br)c1 (centres undefined) -1.24%, CCN(c1ccc(OC)cc1)S(=O)(=O)c1nnc(NC(=O)COc2ccc(F)cc2)s1 -35.8%, CC(C)CC(=O)NCC(c1ccc2c(c1)OCO2)N1CCN(c2ccccc2F)CC1 (centres undefined) -11.8%, C#CCn1c(/C=C/c2ccc(Cl)cc2)nc2ccccc21 -5.28%, CCCN(CCc1cccs1)[C@H]1CCc2c(O)cccc2C1 -17.1%, CCOC(=O)c1ccc(NC(=O)Nc2ccc3snnc3c2)cc1 -3.81%, Cc1cccc(-c2nc(SCC(=O)NCC3CCCO3)c3c(=O)n(C)c(=O)n(C)c3n2)c1 (centres undefined) -25.9%, Cc1ccccc1N(C)C(=O)c1noc2c1COc1ccccc1-2 -1.33%, CCC(CC)C(=O)Nc1ccc(C(=O)OCc2cc(=O)n3nc(C4CC4)sc3n2)cc1 -21.4%, CCC(=O)Nc1ccc(C)cc1-c1nc2ccccc2n(C(C)C(=O)Nc2ccccc2CC)c1=O (centres undefined) -4.71%, CN1C(=O)c2ccccc2Sc2ccc(NC(=O)Cc3c(F)cccc3Cl)cc21 6.83%, O=C(CCn1c(=O)c2cccn2c2cccnc21)NCc1ccccc1Br -11.2%, CCOc1ccc(-c2noc(CSc3nnc(-c4ccccc4)n3-c3ccccc3)n2)cc1 -21.5%, CCC(C(=O)N1CCN(c2cc(Cl)ccc2C)CC1)n1nc(C)c2sc3ccccc3c2c1=O (centres undefined) -7.92%, O=C(NCc1ccccc1Cl)c1cccn1-c1nnc(N2CCCCC2)s1 -18%, Cc1ccc(N(C)S(=O)(=O)c2ccc3c(c2)C(C)(C)C(=O)N3C)cc1C -1.52%, CC(=O)c1ccccc1NS(=O)(=O)c1cc2c(cc1C)NC(=O)CO2 -8.43%, CCN(CC)CCCNC(=O)CCCn1c(=O)[nH]c2ccc(Br)cc2c1=O 2.28%, Cc1ccc(-n2nc(C(=O)N3CCN(c4ccccc4F)CC3)c3c4ccccc4n(C)c3c2=O)cc1 -15%, COc1cccc(CNC(=O)CN2N=C(c3ccc(C)cc3)CCC2=O)c1 -15%, COCCCNC(=O)Cn1c(=O)nc(-c2ccccc2)c2ccccc21 -8.2%, Nc1ncn([C@H]2C[C@H](O)[C@@H](CO)O2)c(=O)n1 -11.6%, CC(CNC(=O)c1nnc(Cc2ccc(F)cc2)o1)c1ccccc1 (centres undefined) 4.57%, Cc1ccc(-n2nc3c(=O)n(CC(=O)NCCC(C)C)nc(C)c3c2C)cc1 -5.39%, COc1cc2ncc(C(=O)c3ccc(C)cc3)c(N3CCCCC3)c2cc1OC -13.3%, COc1ccc(CNCCC(c2ccc3c(c2)OCO3)c2ccccc2OC)cc1 (centres undefined) -8.27%, COc1cccc(NC(=O)CSc2nccn2C2CCCC2)c1 -7.53%, C[C@@H](c1ncncc1F)C(O)(Cn1cncn1)c1ccc(F)cc1F (some centres undefined) -16.5%, O=C(Cn1cc(S(=O)(=O)Cc2cccc(Cl)c2)c2ccccc21)Nc1ccccc1Cl -7.39%, COc1ccc(Cn2cc(C(=O)c3ccc(C)c(C)c3)c(=O)c3ccccc32)cc1 -13.1%, CCCCC12CN3CC(C)(CN(C1)C3c1ccc(O)c(OC)c1)C2=O (centres undefined) -21.4%, Cc1cccn2c(=O)c(C(=O)NCCc3ccccc3)cnc12 -6.39%, CCOc1ccc(CCNC(=O)c2cc(C)nc3c2c(C)nn3-c2cccc(F)c2)cc1 -10.4%, CC(C)(C(=O)c1cccnc1)c1cccnc1 -23.5%, Cc1ccc(F)cc1NC(=O)Cn1c(C)cc(C)c(C#N)c1=O -20.1%, CC1CCN(c2nc3ccc(C(=O)NCc4ccccc4Cl)cc3s2)CC1 -15%, O=C(NC1CCCC1)c1ccc2c(c1)N(Cc1ccccc1)C(=O)c1ccccc1S2 -4.7%, Cc1ccc(S(=O)(=O)c2nnn3c2nc(NCCc2ccccc2)c2sccc23)cc1 -9.04%, O=C(NCc1cccc(Br)c1)c1ccc(NC(=O)N2CCCCc3ccccc32)cc1 3.78%, COc1ccc(N2CCN(Cc3nc4c(c(=O)[nH]c(=O)n4C)n3CC(C)C)CC2)cc1 11.5%, CCc1ccc(S(=O)(=O)c2cn(Cc3ccccc3F)c3cc(OC)c(OC)cc3c2=O)cc1 -8.96%, Cc1c(C)c2c(c(C)c1OC(=O)CCC(=O)OCCO)CC[C@@](C)(CCC[C@H](C)CCC[C@H](C)CCCC(C)C)O2 -0.0937%, Cn1c(=O)oc2cc(S(=O)(=O)N3CCCC(C(=O)NCCc4ccccc4)C3)ccc21 (centres undefined) -6.9%, CC(=O)c1ccc(NS(=O)(=O)c2ccc3[nH]c4c(c3c2)CCCC4)cc1 -16.9%, Cc1ccccc1C(=O)Nc1c(C)nc2ccccn2c1=O -2.04%, Cc1ccc(CNC(=O)c2c[nH]n3c(=O)c(Cc4ccc(Cl)cc4)c(C)nc23)cc1 7.17%, Cc1cccc(NC(=O)CS(=O)(=O)c2cccc3nsnc23)c1 -7.48%, Cc1cc(S(=O)(=O)NCC(c2ccco2)S(=O)(=O)c2cccs2)ccc1F (centres undefined) -10.4%, Cc1ccc(CCNC(=O)c2c3c(nc4ccccc24)C(=O)N(C2CCCCC2)C3)cc1 -6.13%, CCOc1ccc(C2c3[nH]c4ccccc4c3CCN2C(=O)CSCc2ccc(F)cc2)cc1 (centres undefined) -6.2%, O=C(NCCc1ccccc1)c1nn(-c2ccc(F)cc2)nc1CO -1.82%, Cc1cccc(CNC(=O)c2ccc3nc(Cc4ccccc4)oc3c2)c1 -22.7%, COc1ccc(NC(=O)CSc2nnc(NC(=O)NC3CCCCC3)s2)cc1OC -9.54%, Cc1coc2cc3oc(=O)c(CC(=O)NCc4cccc(Cl)c4)c(C)c3cc12 2.41%, Cc1ccc(CNC(=O)c2c(-c3ccccc3Cl)noc2C)o1 -8.5%, CCOc1ccc(CCNC(=O)CCCc2nnc3n(CC)c(=O)c4sccc4n23)cc1OCC 0.884%, Cc1cccc(NC(=O)COc2ccc(-c3nn(C)c(=O)c4ccccc34)cc2)c1 -1.93%, Cc1ccc(NC(=O)Cn2c(=O)n(Cc3nc(-c4ccccc4)no3)c(=O)c3ccccc32)cc1C -9.57%, CCOc1ccc(NC(=O)CSc2nnc(-c3ccc(OCC)cc3)o2)cc1 -11.6%, COC(=O)c1ccccc1NC(=O)CSc1nc(=O)cc(N)n1-c1ccccc1 -10.5%, CN1CC(=O)NC1=N -17.3%, COc1ccc(CNC(=O)Nc2ccc3c(c2)N(C)C(=O)c2ccccc2S3)cc1OC -6.29%, COc1cc(OC)c(NC(=O)CN2CCCN(Cc3ccccc3C)S2(=O)=O)cc1Cl 3.13%, Cc1cccc(NC(=O)CCn2cnnn2)c1C -0.341%, CCC(=O)N1c2ccccc2CC1C(=O)NCc1ccccc1Cl (centres undefined) -20.9%, COc1cc(OC)c(NC(=O)CCc2c(C)nc3ncnn3c2C)cc1Cl 24.5%, CCn1c(CN2CCC(C)CC2)nc2cc(NC(=O)COc3ccc(Cl)c(C)c3)ccc21 -5.42%, COc1cccc(N2CCN(C(=O)c3cc4cc5cc(C)ccc5nc4s3)CC2)c1 -16%, CN(Cc1ccccc1)c1ccc(-c2nc(-c3ccccn3)no2)cc1[N+](=O)[O-] -3.61%, CCc1ccc(-n2c(SCc3ccccc3Cl)nc3[nH]ncc3c2=O)cc1 -1.83%, COc1ccc(-c2nc(CSCC(=O)NCCc3ccccc3)c(C)o2)cc1 1.73%, O=C(NC1(C(F)(F)F)C(=O)Nc2c1c(=O)[nH]c(=O)n2-c1ccc(Cl)cc1)c1ccccc1F (centres undefined) 0.774%, COc1ccc(Cn2cc(S(=O)(=O)c3ccc(Cl)cc3)c(=O)c3cc4c(cc32)OCO4)cc1 -13.3%, Cc1ccc(CNC(=O)c2ccc(Cn3c(=O)c4ccccc4n(CC(=O)Nc4ccc(C)cc4)c3=O)cc2)cc1 -8.68%, Cc1cccc(NC(=O)Cn2cc(C(=O)c3ccco3)c3ccccc32)c1 -18.5%, COC(=O)c1c(NC(=O)/C(C#N)=C/c2ccccc2)sc2c1CCC2 -13.2%, CCOc1ccc(-n2cc(-c3ccccc3)c3c(N4CCN(c5ccccc5OC)CC4)ncnc32)cc1 -10.7%, CCOc1ccc(NC(=O)c2sc3nc4c(c(-c5ccc(OC)cc5)c3c2N)C(=O)CC(C)(C)C4)cc1 0.633%, CCCCN(CC)C(=O)CSc1c2c(nc3ccc(Cl)cc13)CCCC2 -11.7%, COc1ccc(-c2noc(-c3cccnc3N3CCN(c4ccc(OC)cc4)CC3)n2)cc1 -1.88%, O=C(Nc1cccc(Cl)c1)c1ccc2c(c1)CCN2S(=O)(=O)c1ccccc1 -7.61%, CCc1ccccc1Nc1nn2c(=O)c3ccc(C(=O)NCCCOC(C)C)cc3nc2s1 -23.9%, O=C(Nc1ccc2oc(-c3ccncc3)nc2c1)c1ccccc1Cl -17%, Cc1oc(-c2ccc(Cl)cc2)nc1CSc1nc2ncccc2[nH]1 1.76%, O=C(OCc1cc(=O)n2nc(C3CCCCC3)sc2n1)c1ccc(F)cc1 -4.21%, COc1cccc(NC(=O)c2ccc(-c3nc(COc4ccccc4)c(C)o3)cc2)c1 -1.05%, CCOCCCNC(=O)CN1C(=O)COc2ccc(S(=O)(=O)N3CCCC3)cc21 -0.936%, CCOC(=O)c1c(C)[nH]c(C)c1S(=O)(=O)N1CCCC(C(=O)NCc2ccc(Cl)cc2)C1 (centres undefined) -11.7%, COc1ccccc1Nc1cc(C(=O)NC2CCC(C)CC2)c2ccccc2n1 (centres undefined) -14%, CCn1nc(C)c(CCN(C)C(=O)Nc2cc(OC)c(OC)c(OC)c2)c1C -14.2%, CCOC(=O)c1cnn(-c2ccc(C(=O)Nc3cccc(C(C)=O)c3)cc2)c1N -4.83%, Cc1ccc(N2CC(NC(=O)c3ccc(S(=O)(=O)N4CCOCC4)cc3)CC2=O)cc1 (centres undefined) -4.28%, CCN(C(=O)Nc1cn(CC(C)C)c(=O)c2ccccc12)c1cc(C)ccc1C -23.9%, Cc1c(Cl)cccc1NC(=O)C1CCN(c2ncnc3c2nc2n3CCCCC2)CC1 -15.1%, Cc1ccc2nc(Nc3ccc(C)c(F)c3)c3nncn3c2c1 -13.3%, Cc1ccc(CNC(=O)CCn2cnc3ccccc3c2=O)cc1 -5.64%, Fc1cccc(-c2nnn3c2nc(NCCc2ccccc2)c2ccccc23)c1 -1.23%
